{"source": "paper PMC4336329", "about": "(PLoS ONE, 2015)", "note": "The whole screen tested about 310,000 compounds, of which about 2,200 (0.71%) showed an effect of 50% or more. The effect is printed as a negative number. This is one part of the list.", "data": [{"target": "human ether-à-go-go-related gene (hERG) potassium channel (human, UniProt Q12809)", "sequence (Q12809 whole entry, looked up)": "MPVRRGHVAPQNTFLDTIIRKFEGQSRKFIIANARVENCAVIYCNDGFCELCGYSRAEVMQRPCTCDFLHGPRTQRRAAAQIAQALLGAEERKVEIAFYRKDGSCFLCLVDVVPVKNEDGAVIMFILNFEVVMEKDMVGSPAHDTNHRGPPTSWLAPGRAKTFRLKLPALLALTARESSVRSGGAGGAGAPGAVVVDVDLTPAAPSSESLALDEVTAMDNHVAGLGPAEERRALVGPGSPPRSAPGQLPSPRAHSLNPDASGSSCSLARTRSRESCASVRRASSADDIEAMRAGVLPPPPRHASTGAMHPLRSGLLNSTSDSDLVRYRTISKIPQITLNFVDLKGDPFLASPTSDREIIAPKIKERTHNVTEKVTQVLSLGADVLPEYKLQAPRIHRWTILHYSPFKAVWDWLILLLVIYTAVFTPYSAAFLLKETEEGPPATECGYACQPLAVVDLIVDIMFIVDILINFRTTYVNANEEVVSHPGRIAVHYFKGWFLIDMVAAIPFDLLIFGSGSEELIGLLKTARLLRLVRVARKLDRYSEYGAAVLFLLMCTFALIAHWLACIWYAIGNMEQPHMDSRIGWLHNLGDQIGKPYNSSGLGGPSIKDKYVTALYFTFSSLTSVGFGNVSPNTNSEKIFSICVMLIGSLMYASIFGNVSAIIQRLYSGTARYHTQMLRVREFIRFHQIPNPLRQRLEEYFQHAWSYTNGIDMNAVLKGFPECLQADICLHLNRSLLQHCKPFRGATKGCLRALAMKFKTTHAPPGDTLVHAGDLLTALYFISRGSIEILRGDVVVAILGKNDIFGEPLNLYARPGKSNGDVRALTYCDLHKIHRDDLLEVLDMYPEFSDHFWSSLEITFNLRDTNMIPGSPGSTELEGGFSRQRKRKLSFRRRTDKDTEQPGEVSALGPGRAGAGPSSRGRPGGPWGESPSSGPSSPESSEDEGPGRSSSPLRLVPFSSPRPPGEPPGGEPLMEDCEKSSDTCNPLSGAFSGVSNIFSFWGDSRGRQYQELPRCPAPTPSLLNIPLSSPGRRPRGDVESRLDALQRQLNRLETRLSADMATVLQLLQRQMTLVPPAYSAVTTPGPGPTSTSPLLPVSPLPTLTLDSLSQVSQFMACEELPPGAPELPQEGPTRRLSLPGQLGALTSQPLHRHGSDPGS", "test": "primary screen, population patch clamp on CHO cells stably expressing hERG", "units": {"hERG current change (%, negative = inhibition) at 1uM": "%"}, "values": [{"smiles": "c1nc2nc3c(c(N4CCOCC4)n2n1)CCCC3", "hERG current change (%, negative = inhibition) at 1uM": -0.603}, {"smiles": "C=CCn1c(SCC(=O)Nc2ccc(N3CCOCC3)cc2)nnc1-c1ccncc1", "hERG current change (%, negative = inhibition) at 1uM": 8.97}, {"smiles": "O=C(N/N=C/c1ccncc1)c1sc2ccccc2c1Cl", "hERG current change (%, negative = inhibition) at 1uM": 6.42}, {"smiles": "COCCCNC(c1ccccc1)c1ccncc1.Cl", "note": "(stereo not drawn)", "hERG current change (%, negative = inhibition) at 1uM": 14.8}, {"smiles": "C(=C\\c1cccc2ccccc12)/c1nnc(-c2cccs2)o1", "hERG current change (%, negative = inhibition) at 1uM": 52.4}, {"smiles": "CCc1ccc(CN(C)C(=O)c2cc(COc3ccc(OC)cc3Cl)on2)nc1", "hERG current change (%, negative = inhibition) at 1uM": -4.73}, {"smiles": "O=C(CSc1nccn1-c1ccccc1)c1ccc(Cl)cc1", "hERG current change (%, negative = inhibition) at 1uM": 1.95}, {"smiles": "CC1CCCCC1NC(=O)Cn1nnc2ccccc2c1=O", "note": "(stereo not drawn)", "hERG current change (%, negative = inhibition) at 1uM": 10.6}, {"smiles": "CCC(=O)c1ccc(OCC(=O)OCC(=O)c2cc(C)n(CC3CCCO3)c2C)cc1", "note": "(stereo not drawn)", "hERG current change (%, negative = inhibition) at 1uM": 10.8}, {"smiles": "O=C1CCCN1CCCNS(=O)(=O)c1ccc(Br)s1", "hERG current change (%, negative = inhibition) at 1uM": 16.3}, {"smiles": "O=C(c1ccc(NC(=S)NCc2ccco2)cc1)N1CCCCC1", "hERG current change (%, negative = inhibition) at 1uM": 13.3}, {"smiles": "COc1ccc(NC(=O)c2c(Nc3ccccc3)sc(C(=O)c3ccc(F)cc3)c2N)cc1", "hERG current change (%, negative = inhibition) at 1uM": -1.58}, {"smiles": "O=C(O)COc1ccccc1O", "hERG current change (%, negative = inhibition) at 1uM": 15.3}, {"smiles": "CC1C(c2ccccc2)C(C#N)(C#N)C2(C#N)C(=O)NC1(N)C2C", "note": "(stereo not drawn)", "hERG current change (%, negative = inhibition) at 1uM": 0.278}, {"smiles": "O=C(CN(C(=O)CCC(=O)Nc1nccs1)c1ccc2c(c1)OCO2)NCC1CCCO1", "note": "(stereo not drawn)", "hERG current change (%, negative = inhibition) at 1uM": 10.1}, {"smiles": "Cc1ccc(OCC(O)Cn2c(NCCc3ccccc3)nc3c2c(=O)[nH]c(=O)n3C)cc1", "note": "(stereo not drawn)", "hERG current change (%, negative = inhibition) at 1uM": 0.483}, {"smiles": "Cc1c(C(=O)N2CCCCC2)c(S(=O)(=O)N(C)Cc2ccccc2)c(C)n1C", "hERG current change (%, negative = inhibition) at 1uM": 4.83}, {"smiles": "Cc1nnc(SCC(=O)N(C)C2CCCCC2)s1", "hERG current change (%, negative = inhibition) at 1uM": 2.88}, {"smiles": "O=C(c1ccc(F)cc1F)N1CCN(c2n[nH]c(=O)[nH]c2=O)CC1", "hERG current change (%, negative = inhibition) at 1uM": 5.59}, {"smiles": "CCN1CCN(CCCNC(=O)c2cc3c(s2)-c2ccccc2OC3)CC1", "hERG current change (%, negative = inhibition) at 1uM": -23}, {"smiles": "O=C1NC(c2ccc(Cl)cc2Cl)Oc2ccccc21", "note": "(stereo not drawn)", "hERG current change (%, negative = inhibition) at 1uM": 9.56}, {"smiles": "CCCCOc1ccc(C(=O)N2CC(C)OC(C)C2)cc1", "note": "(stereo not drawn)", "hERG current change (%, negative = inhibition) at 1uM": -1.56}, {"smiles": "COc1ccc(S(=O)(=O)NCc2ccccn2)cc1", "hERG current change (%, negative = inhibition) at 1uM": 10.3}, {"smiles": "C/C(=N\\NS(=O)(=O)c1ccc(Cl)cc1)c1ccc(NC(=O)c2ccco2)cc1", "hERG current change (%, negative = inhibition) at 1uM": 15.1}, {"smiles": "O=C(Nc1cc(C(F)(F)F)ccc1N1CCOCC1)c1ccc(Cl)nc1", "hERG current change (%, negative = inhibition) at 1uM": 7.97}, {"smiles": "Cc1cccc(C)c1OCC(=O)N(Cc1cccs1)C1CCS(=O)(=O)C1", "note": "(stereo not drawn)", "hERG current change (%, negative = inhibition) at 1uM": 14.2}, {"smiles": "COc1cc(SC)ccc1C(=O)N(C)CC(=O)Nc1cccc2ccccc12", "hERG current change (%, negative = inhibition) at 1uM": 11.4}, {"smiles": "CCc1ccccc1-n1c(SCC(=O)c2c(N)n(C3CC3)c(=O)[nH]c2=O)nnc1N1CCOCC1", "hERG current change (%, negative = inhibition) at 1uM": 8.99}, {"smiles": "Cc1cc(OCC(=O)Nc2ccccn2)c2c(C)c(C)c(=O)oc2c1", "hERG current change (%, negative = inhibition) at 1uM": 17.7}, {"smiles": "O=C(COC(=O)C1(c2ccc(F)cc2)CCCC1)N1CCOCC1", "hERG current change (%, negative = inhibition) at 1uM": 15}, {"smiles": "N#Cc1ccccc1OCCCNC1CCCC1.O=C(O)C(=O)O", "hERG current change (%, negative = inhibition) at 1uM": 2.23}, {"smiles": "CC(=O)Nc1ccccc1OC(C)C(=O)N1CCC(C)CC1", "note": "(stereo not drawn)", "hERG current change (%, negative = inhibition) at 1uM": 13.4}, {"smiles": "COc1ccc(C(=O)Nc2ccc(Nc3ccccc3)cc2)cc1[N+](=O)[O-]", "hERG current change (%, negative = inhibition) at 1uM": -1.73}, {"smiles": "COc1ccc(NC(=O)c2cc(S(=O)(=O)N3CCc4ccccc43)cn2C)c(OC)c1", "hERG current change (%, negative = inhibition) at 1uM": 4.11}, {"smiles": "Cc1nc2ccccc2c2oc(C(=O)N3CCCC(C)C3)cc12", "note": "(stereo not drawn)", "hERG current change (%, negative = inhibition) at 1uM": 8.54}, {"smiles": "CCc1cc2cc(C)cc(C)c2nc1SCC(=O)NNC(=O)c1ccco1", "hERG current change (%, negative = inhibition) at 1uM": 8.74}, {"smiles": "Cc1ccc(-c2cnc(SCCNC(=O)c3ccco3)[nH]2)cc1", "hERG current change (%, negative = inhibition) at 1uM": -5.7}, {"smiles": "COc1ccc(-c2nc(-c3ccc(NC(=O)c4ccncc4)cc3)no2)cc1OC", "hERG current change (%, negative = inhibition) at 1uM": 11.1}, {"smiles": "COC(=O)c1ccc(CNC(=O)c2cc3ccccc3oc2=O)cc1", "hERG current change (%, negative = inhibition) at 1uM": 8.93}, {"smiles": "COCCn1c(SCC(=O)Nc2ccc(C(C)=O)cc2)nc2c([nH]c3ccccc32)c1=O", "hERG current change (%, negative = inhibition) at 1uM": 7.76}, {"smiles": "NC(=O)C1CCN(C(=O)/C=C/c2cccc(Br)c2)CC1", "hERG current change (%, negative = inhibition) at 1uM": -1.73}, {"smiles": "COc1cccc(-c2nnn(CC(=O)NC3CCCC3)n2)c1OC", "hERG current change (%, negative = inhibition) at 1uM": 14.6}, {"smiles": "O=C(NCc1ccco1)C(c1ccncc1)N(CCC1=CCCCC1)C(=O)Cn1nnc2ccccc21", "note": "(stereo not drawn)", "hERG current change (%, negative = inhibition) at 1uM": 2.4}, {"smiles": "O=C1CSc2ccc(C(=O)NCCC3=CCCCC3)cc2N1", "hERG current change (%, negative = inhibition) at 1uM": 10.9}, {"smiles": "COc1cc(-c2nnco2)cc(OC)c1OC", "hERG current change (%, negative = inhibition) at 1uM": 8.53}]}]}
